Experimental findings from PubChem BioAssay AID463173 (ICCB-Longwood Screening Facility, Harvard Medical School, 2010) are described below.

Values joined by “and” are separate entries in the source; they are usually repeats but may differ in a detail not shown here. Identical values can stand only once. Among all 52,000 compounds or so, about 4,300 (8.3%) were called active. No stated cut-off is given here; in the data, active means survival mostly below about 52% (no sharp cut-off); inactive means mostly above about 56%. Some of the results follow. Where a structure was tested more than once in an assay, its records may differ in their call.

For the experiment, the system named is DeltatarO mutant. Briefly: S. aureus survival, RN4220 and DeltatarO strains – OD600, teichoic acid synthesis inhibitors, primary screen (AID 463173). The settings on record: S. aureus RN4220 wild type/DeltatarO growth, OD600, 18 h, stronger effect = lower value, screened at 18.75 µg/mL (by protocol).
As for `COc1cccc(N2CCN(c3ncnc4c3c(-c3ccccc3)cn4-c3cccc(C(F)(F)F)c3)CC2)c1`, the survival was inactive: 84%. The result for `CCCNC(=O)N1[C@H](c2cccs2)[C@@H](C)C(=O)[C@@H](C)[C@@H]1c1cccs1` reads inactive: 107%; that for `COc1ccc(S(=O)(=O)NCC(c2ccc(N(C)C)cc2)N2CCc3ccccc32)cc1F` (stereo not given), inactive: 84%.

In the case of `COc1ccc(CNC2CCCC2)cc1`, the survival was inactive: 79%. With `CCOC(=O)c1ccccc1NC(=O)COC(=O)CC(C)(C)CC1=NS(=O)(=O)c2ccccc2N1` the figure was inactive: 67%; with `Cc1cc(C)n2nc(CNS(=O)(=O)c3ccccc3)nc2n1`, inactive: 119%; with `CCOc1ccc(S(=O)(=O)N2CCC(c3ccncc3)CC2)cc1`, inactive: 134%. Consider `Cc1ccc(N2C(=O)CC(NCC(=O)O)C2=O)c(C)c1` (stereo not given), for which the survival is inactive: 89%. With `COc1cccc(NC(=O)c2oc3ccc(S(=O)(=O)N4CCCCCC4)cc3c2C)c1` the figure was inactive: 95%; with `COC(=O)c1ccccc1NC(=O)c1nn(-c2ccc(OC)cc2)c(=O)c2c1c1ccccc1n2C`, inactive: 88%. `COc1cccc(NC(=O)C2CCN(S(=O)(=O)c3ccc4[nH]c5c(c4c3)CCCCC5)CC2)c1`: the survival was inactive: 70%. For `CCOC(=O)C(C)Sc1nc(-c2ccccc2)ccc1C#N` (stereo not given), the survival was inactive: 82% and active: -1%. With `CCC(C)NC(=O)c1c(C)oc2nc(C)nc(N3CCOCC3)c12` (stereo not given) the figure was inactive: 83%. The result for `Cc1ccc(NC(=O)c2ccc3snnc3c2)cc1C` reads inactive: 109%. With `Cc1cc(C)n(-c2nc(C)c(C)c(=O)n2CC(=O)Nc2cccc([N+](=O)[O-])c2)n1` the figure was active: 52%. As for `CCOC(=O)c1ccc(NC(=O)Cn2c3ncccc3c(=O)n2-c2ccc(C)c(C)c2)cc1`, the survival is inactive: 77%. The result for `COc1ccc(-c2cc(C(=O)NCCc3ccc(OC)c(OC)c3)c3c(-c4ccc(F)cc4)[nH]nc3n2)cc1` reads inactive: 69%; that for `COc1cccc(NC(=O)CN(c2cccc(OC)c2)S(C)(=O)=O)c1`, inactive: 99%. With `COC(=O)CC(=O)CSc1nc2cc(C(=O)NCC(C)C)ccc2c(=O)n1CCc1ccccc1`, the survival was inactive: 128%. With `O=C(Nc1ccccc1C(F)(F)F)N1CC=C(c2c[nH]c3ccccc23)CC1` the figure was inactive: 117%. With `COc1ccc(-c2cc3nc(C)c(CCC(=O)NC(C)c4ccccc4)c(C)n3n2)c(OC)c1` (stereo not given) the figure was inactive: 84%; with `COc1ccc(-c2onc(C)c2C)cc1S(=O)(=O)N1CCN(c2cc(C)ccc2C)CC1`, inactive: 81%; with `Cc1c(Cl)ccc2sc(N3CCN(C(=O)C4CC4)CC3)nc12`, inactive: 98%. With `Cc1nn(C(=O)c2cccc([N+](=O)[O-])c2C)c(C)c1S(=O)(=O)N1CCCCCC1` the figure was active: -2%; with `CCOc1ccc(N(CC)S(=O)(=O)N2CCCC(C(=O)Nc3ccc(OC)c(Cl)c3)C2)cc1` (stereo not given), inactive: 83%; with `Cc1cccc(NC(=O)CN2C(=O)CSc3ccc(S(=O)(=O)N4CCCC4)cc32)c1C`, inactive: 92%.

`O=C(O)c1ccccc1C(=O)Nc1cccnc1`: the survival is inactive: 89%. As for `COc1cccc(NC(=O)CSc2c3c(nc4ccccc24)CCCC3)c1`, the survival was active: 43%. With `O=C(Cn1c(C(=O)NC2CCCCC2)cc2sccc21)c1ccccc1` the figure was inactive: 85%; with `CCc1ccccc1NC(=O)Cn1nc(N2CCN(c3ccccc3OC)CC2)ccc1=O`, inactive: 89%. With `CCOc1ccccc1C(=O)N1CCC(c2nc3ccccc3o2)CC1`, the survival was inactive: 80%. With `COc1ccc(OC)c(NC(=O)CC(=O)Nc2ccc3nc4n(c(=O)c3c2)CCCCC4)c1` the figure was inactive: 69%.

`Cc1nc(SCC(=O)Nc2ccc(C(=O)O)cc2)n[nH]1`: the survival is inactive: 92%. The result for `Cc1cc(C)c(OCCOCCn2c(-c3ccc(Cl)cc3)nc3ccccc3c2=O)c(C)c1` reads active: 43%. The result for `Cc1ccc(C2CCN(C(=O)c3cnn(-c4ccc(C)c(C)c4)c3C3CCN(C(=O)OC(C)(C)C)CC3)C2)cc1` (stereo not given) reads inactive: 90%; that for `N#Cc1cc(-c2ccccc2C(F)(F)F)no1`, inactive: 83%; that for `Cc1cccc(NC(=O)CCS(=O)(=O)c2cc(Br)cc3c2N(C(=O)C2CC2)CC3)c1`, inactive: 111%. Regarding `Cc1ccc(CNC(=O)CC2Oc3ccc(Cl)cc3NC2=O)cc1` (stereo not given), the survival is inactive: 81%. The result for `Cc1ccc(CN(Cc2ccco2)C(=O)COc2ccc(C)c(C)c2)cc1` reads inactive: 68%. With `CCOc1ccc(NS(=O)(=O)c2ccc3c4c(cccc24)C(=O)N3)cc1` the figure was inactive: 83%; with `CC(C)(C)c1ccc(C(=O)NCC(c2ccc(Cl)cc2)N2CCOCC2)cc1` (stereo not given), inactive: 86%. The result for `CCc1ccc(S(=O)(=O)Nc2cccc(-c3ccc(N4CCOCC4)nn3)c2)cc1` reads inactive: 76%; that for `COc1ccc(OC)c(S(=O)(=O)Nc2cccc(-c3ccc(N4CCCCC4)nn3)c2)c1`, inactive: 83%; that for `Cn1ncc(Cl)c1C(=O)O`, inactive: 94%. As to `Cc1ccc(C)c(N2CCN(C(=O)CSCc3ccccc3Cl)CC2)c1`, the survival is inactive: 115%. The result for `COc1cccc(NC(=O)CC2Nc3cc(C)c(C)cc3NC2=O)c1` (stereo not given) reads inactive: 89%; that for `Cc1ccc(CNC(=O)c2ccc3nc(SCc4ccc(F)cc4)[nH]c3c2)cc1`, inactive: 72%; that for `COc1cccc(-c2nc(SCC(=O)NC3CCCC3)c(-c3ccc(C)cc3)[nH]2)c1`, inactive: 107%. With `CC1=C(c2ccc(C(C)C)cc2)S(=O)(=O)N=C1N1CCC(C(=O)NCCc2ccco2)CC1` the figure was active: 6%. With `CN(N)C1=NS(=O)(=O)c2ccccc21` the figure was inactive: 67%; with `CCN(CC)C(=O)CSc1nc(-c2ccc(C)cc2)nc2c1Cc1c(CO)cnc(C)c1O2`, active: 39%. As for `COc1ccc(N2CC(NC(=O)c3ccc(S(=O)(=O)N4CCCCC4)cc3)CC2=O)cc1` (stereo not given), the survival is inactive: 83%. With `CCOc1ccc(CNC(=O)c2ccc3c(c2)nc2n3CCOC2)cc1OC` the figure was active: 6%; with `CCc1cccc(NC(=O)C(Cc2ccccc2)n2cccc2)c1` (stereo not given), active: 18%. For the compound `CC(C)(C)c1ccc(CSc2n[nH]c(=O)[nH]c2=O)cc1`, the survival is inactive: 98%. The result for `CC(C)CC(=O)N(c1nnc(-c2cccnc2)s1)C1CCCC1` reads inactive: 101%. Take `CC1=C(C(=O)Nc2ccc(F)cc2F)C2(CCN(C(C)C)CC2)OC1=O`: the survival is inactive: 49%.

Regarding `CCCOc1cccc(C(=O)Nc2cc(-c3ccccc3)no2)c1`, the survival was inactive: 65%. As for `CCc1ccc(NC(=O)CN(c2cc(C)cc(C)c2)S(=O)(=O)c2c(C)[nH]c(=O)[nH]c2=O)cc1`, the survival was inactive: 57%.

As for `CC(=O)c1cccc(NC(=O)CSc2nc3ccccc3nc2Cc2ccc(F)cc2)c1`, the survival was inactive: 77%. The result for `CC(=O)Nc1ccccc1-c1nc2ccccc2n(CC(=O)Nc2cccc(C(F)(F)F)c2)c1=O` reads active: 45%; that for `Cc1ccc(CO)cc1Nc1ncnc2onc(-c3ccc(F)cc3)c12`, active: 46%; that for `CCOc1cccc2cc(S(=O)(=O)c3ccccc3F)c(=O)oc12`, inactive: 89%. With `CS(=O)(=O)N1CCNCC1` the figure was inactive: 75%; with `O=[N+]([O-])c1cc(-c2nc(-c3ccccc3)no2)ccc1NC1CCCCC1`, inactive: 75%; with `N#C/C(=C\Nc1ccc2c(c1)OCCO2)c1nc2ccccc2[nH]1`, inactive: 57%.

With `O=C(Cc1csc2nc(-c3ccc(F)cc3)cn12)NCc1ccccc1`, the survival is inactive: 94%.

In the case of `C=Cc1ccc(Cn2c(C)c(CNCc3ccccc3C)c(C(=O)O)c2C)cc1`, the survival is inactive: 120%.

Regarding `COc1ccc(C2c3cc(OC)c(OC)cc3CC(=O)N2c2ccc(C)c(F)c2)cc1` (stereo not given), the survival is inactive: 79%. With `CCC1Oc2ccc(Cl)cc2N(CC(=O)NCCc2ccc(Cl)cc2)C1=O` (stereo not given) the figure was inactive: 94%; with `CCCN1Cc2cccc(C(=O)Nc3cccc(C(=O)OCC)c3)c2C1=O`, inactive: 88%. `COc1ccc(/C=C/C(=O)Nc2ccc3nc(N4CCC(C)CC4)cc(C)c3c2)cc1`: the survival was active: 51%. With `COCCNc1nc(NCc2cccc(Cl)c2)c2cnn(C)c2n1` the figure was inactive: 77%; with `COc1ccc2c(c1)cc1c(=O)n(CC(=O)NC3CC3)nc(C)n12`, inactive: 80%. The result for `CCN(c1ccccc1)S(=O)(=O)c1c(-c2ccc(C)cc2)csc1C(=O)OC` reads inactive: 108%; that for `COc1ccccc1C(=O)Nc1ccc2oc(-c3cccc4c(Br)cccc34)nc2c1`, inactive: 46%. For `CCCCS(=O)Cc1ccccc1` (stereo not given), the survival is inactive: 95%. With `O=C(Nc1cccc(F)c1)c1ccc2c(c1)N(Cc1ccccc1)C(=O)c1ccccc1S2(=O)=O` the figure was inactive: 80%; with `O=C(COc1ccc(Cl)cc1)OCc1cc(=O)n2nc(C3CC3)sc2n1`, inactive: 83%; with `COC(=O)c1ccccc1NC(=O)C1CCN(C(=O)N2CC(C)Oc3ccccc32)CC1` (stereo not given), inactive: 61%. With `COc1ccc(C(=O)NCC(c2ccc(N(C)C)cc2)N2CCc3ccccc32)cc1OC` (stereo not given) the figure was inactive: 64%. With `Cc1ccc(OCC(=O)Nc2ccccc2OCc2cc(=O)n3ccccc3n2)cc1C` the figure was inactive: 120%; with `COc1ccc(-c2nc3ccccc3s2)cc1NC(=O)c1ccc(F)cc1`, inactive: 137%; with `O=C(Nc1nnc(S(=O)(=O)N2CCCCC2)s1)c1ccccc1Br`, inactive: 61%.

`Cc1ccc(-c2nnc(Nc3ccc(C(=O)N(C)C)cc3)c3ccccc23)cc1S(=O)(=O)N(C)C`: the survival is inactive: 79%. With `O=C1OC(c2ccccc2)=C/C1=C/N1CCOCC1` the figure was inactive: 104%.

On to `CCN(C(=O)CN1C(=O)COc2ccc(S(=O)(=O)N3CCOCC3)cc21)c1ccc(OC)cc1`, for which the survival is inactive: 88%. The result for `COc1ccc(F)cc1S(=O)(=O)Nc1cccc(-c2ccc(N3CCC(C)CC3)nn2)c1` reads inactive: 109%; that for `O=C(Cn1ncn2c(cc3ccccc32)c1=O)NCc1ccc(F)cc1`, inactive: 104%. Take `Cc1ccc(-c2cc(-c3ccccc3)c(C#N)c(SCC(O)CS(=O)(=O)Cc3ccccc3)n2)cc1` (stereo not given): the survival is inactive: 60%.
